Measured values published in PubChem BioAssay AID1656 (Sanford-Burnham Center for Chemical Genomics, 2009).
Screen size: about 240,000 compounds; about 950 (0.4%) were called active. Inconclusive means that the source gave no clear call. Such entries were picked first, then a sample of the others.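 Rule for the calls: active = lipid droplet intensity inhibited by at least 50%, with more than 500 cells counted; inconclusive = wells with under 300 cells, treated as cytotoxic; inactive = the rest.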

Experiment: inhibitors of hepatocyte lipid droplet formation, primary screen, imaging, high-throughput imaging, BODIPY stain (AID 1656)
Details: AML12 mouse hepatocytes, oleate lipid droplets, at 6.5 µM, stronger effect = higher value
In short: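 System: AML12 hepatocytes (mouse). Probe or stimulus: oleic acid at 100 µM to induce lipid droplet formation. Times: overnight treatment with compound plus oleate. Detection: Image-based BODIPY and DAPI two-channel analysis. Evaluation: percent inhibition of filter-corrected integrated lipid droplet intensity per well.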

Row | Structure (SMILES) | inhibition
1 | COc1ccc(C(C(=O)NC2CCCCC2)N(C(=O)CCl)c2cccc(Cl)c2)cc1 (stereo not drawn) | inconclusive: -123%
2 | CCn1cc(C(=O)NCc2ccco2)c(=O)c2ccc(C)nc21 | inactive: 0.4%
3 | COc1cccc(-c2nn(Cc3ccccc3)cc2CO)c1 | inactive: -2%
4 | O=C(c1ccco1)N1CCN(C(=O)N2c3ccccc3Sc3ccccc32)CC1 | inconclusive: -159%
5 | Cc1ccsc1/C=N/NC(=O)c1cc(-c2ccncc2)nc2ccccc12 | inconclusive: -163%
6 | CCn1c(=O)c2cc(C(=O)NCCC(C)C)sc2c2ccccc21 | active: 54%
7 | Cn1c(=O)[nH]c(=O)c2c1nc(N1CCN(C(c3ccccc3)c3ccccc3)CC1)n2CCO | active: 60.3%
8 | Cc1ccc(CN2CC(C(=O)Nc3ccncc3)CC2=O)cc1 (stereo not drawn) | inactive: 4.7%
9 | CCCCn1c(-c2cccs2)nc2oc3ccccc3c(=O)c2c1=O | inactive: -10.2%
10 | COC(=O)/C(=C/c1ccc2c(c1)c1ccccc1n2C)NC(=O)c1ccccc1 | active: 83.4%
11 | Cc1nnc(SCC(=O)Nc2cc(-c3cc(C)c(C)cc3C)nn2-c2ccccc2)s1 | active: 78.3%
12 | Cc1nn(-c2ccccc2)c(C)c1/C=N/NC(=O)c1cc(-c2cccs2)[nH]n1 | inconclusive: -110%
13 | COc1ccc(CCNC(=O)C(=O)NCC2OCCN2S(=O)(=O)c2ccc(Br)cc2)cc1OC (stereo not drawn) | inconclusive: -21.8%
14 | Cc1ccc(-n2nc3c(=O)n(C(C)C(=O)NCCC4=CCCCC4)nc(C)c3c2C)cc1 (stereo not drawn) | active: 58.3%
15 | CCOC(=O)CSC1=C(C#N)C(c2ccc(C)o2)CC(=O)N1 (stereo not drawn) | inconclusive: -331%
16 | COc1cc2c(cc1NC(=O)COC(=O)/C=C/c1ccccc1)oc1ccccc12 | inconclusive: -87.2%
17 | CC(C)[C@H](NC(=O)OCc1ccccc1)C(=O)OCc1cc(=O)oc2cc(O)ccc12 | inactive: -6.9%
18 | Cc1ccc(C(=O)c2cc([N+](=O)[O-])ccc2N2CCCCC2)cc1 | inconclusive: -192%
19 | Cc1cccc(CCNC(=O)CCNC(=O)Cn2ccc3ccccc3c2=O)c1 | inactive: 15%
20 | COc1ccccc1/C=C1/SC(=O)N(CCC(=O)Nc2ccc(S(=O)(=O)Nc3nccs3)cc2)C1=O | inconclusive: -14.7%
21 | CC(C)Oc1ccc(C(=O)NC(=S)Nc2ccc(CN3CCOCC3)cc2)cc1 | inconclusive: -17.6%
22 | COc1ccc(-c2coc3cc4oc(=O)c5ccccc5c4cc23)cc1F | inconclusive: -134%
23 | Cc1ccc(-c2noc(C3CCCN(C(=O)c4ccc(F)cc4F)C3)n2)cc1 (stereo not drawn) | inconclusive: 114%
24 | Cc1ccc2c(c1)N(CC(=O)NCCC1=CCCCC1)C(=O)c1cccnc1O2 | inactive: -11.3%
25 | COc1ccccc1N(CC(=O)N1CCCC1)S(=O)(=O)c1ccc(C)cc1 | inconclusive: -91.4%
26 | COC(=O)c1c(NC(=O)CCC(=O)O)sc(Cc2ccccc2)c1C | inactive: -19.1%
27 | CCOC(=O)C1=C(C)N=c2s/c(=C3\C(=O)Nc4ccccc43)c(=O)n2C1c1ccc2c(c1)OCO2 (stereo not drawn) | active: 58.6%

Row | Structure (SMILES) | inhibition
28 | Cc1ccc(C(=O)Nc2ncc(Cc3ccc(SC(F)F)cc3)s2)cc1 | inconclusive: -201%
29 | Cc1cc(C)c(S(=O)(=O)/N=C2\C=C(Nc3ccc(C(=O)O)cc3)C(=O)c3ccccc32)c(C)c1 | inactive: -15%
30 | COc1nc(Nc2nc3ccccc3c(=O)[nH]2)nc2ccc(C)cc12 | inconclusive: -46.7%
31 | Nc1nc(-c2ccc(Cl)cc2)c(N=Nc2ccc(S(=O)(=O)N3CCOCC3)cc2)s1 | active: 64.7%
32 | COc1cccc2c1C(=O)c1c(O)c3c(c(O)c1C2=O)C[C@@](O)(C(=O)CO)C[C@@H]3O[C@H]1C[C@H](N)[C@H](O)[C@H](C)O1 | inconclusive: 37%
33 | CC1C/C(=C/c2ccccn2)C(=O)/C(=C/c2ccccn2)C1 (stereo not drawn) | inconclusive: -107%
34 | CC1=C(C(=O)OCC2CCCO2)C(c2ccc(Cl)c(Cl)c2)NC(=O)N1 (stereo not drawn) | active: 57.1%
35 | Cc1ccccc1C(=O)Nc1ccc(C(=O)N/N=C/c2ccc(O)c(Br)c2)cc1 | inconclusive: 131%
36 | CCCCNC(=O)C(c1ccc(OCC(=O)OC)c(C(=O)OC)c1)N(CCc1c[nH]c2ccccc12)C(=O)CCCCCN1C(=O)NC(c2ccc(-c3ccccc3)cc2)C(C(=O)OCc2ccccc2)=C1C (stereo not drawn) | inactive: -2.4%
37 | CCOc1ccccc1NC(=O)CSCC(=O)Nc1ccccc1 | active: 57.3%
38 | CCOC(=O)c1[nH]c2c(c1C)C(=O)CC(c1ccc(F)cc1)C2 (stereo not drawn) | inconclusive: -88.5%
39 | CC(C)(C)c1ccc(C(=O)Nc2ccc([N+](=O)[O-])cn2)cc1 | inactive: 0.9%
40 | CCCCNc1nc2c(-c3ccccc3)nnn2c2ccccc12 | inactive: -9.4%
41 | COc1ccc(/C=C/C(=O)NCC2COc3ccccc3O2)c(OC)c1 (stereo not drawn) | active: 65.4%
42 | COc1ccc(-c2cc3nnc(-c4ccccc4)nc3s2)cc1 | inactive: -4%
43 | CN1C(=O)C2(c3ccccc31)c1c(oc3ccccc3c1=O)C(=O)N2CCCO (stereo not drawn) | inactive: 7.5%
44 | Cn1cccc1/C=C1\SC(=Nc2ccc(O)cc2)NC1=O | inconclusive: -129%
45 | Cc1c(C(=O)OC2CCCC2)[nH]c2c1C(=O)CC(c1ccco1)C2 (stereo not drawn) | inconclusive: -101%
46 | CCOc1ccccc1NS(=O)(=O)c1ccc(-c2cnc(C3CC3)o2)cc1 | inconclusive: -172%
47 | CCC1(c2ccccc2)NC(=O)N(CC(=O)NCc2ccc(OC)cc2)C1=O (stereo not drawn) | inconclusive: 115%
48 | O=C1OCC2=C1C(c1ccc(F)cc1)c1cc3c(cc1N2)OCCO3 (stereo not drawn) | inconclusive: -135%
49 | Cc1c(NC(=S)N/N=C\c2ccccc2O)c(=O)n(-c2ccccc2)n1C | inconclusive: 1%
50 | Cc1c(C(=O)Nc2ccccc2)csc1-c1ccccc1 | inactive: 14.2%
51 | O=C(Nc1nnc(Cc2ccccc2)s1)Nc1ccccc1F | inactive: 4.6%
52 | Cc1ccc2nc(Cl)c(/C=N/NC(=O)[C@H]3C[C@@H]3c3ccccc3)cc2c1 | active: 105%
53 | COc1ccc2c(c1)c(/C=N/Nc1nc3ccccc3[nH]1)c(C)n2C | inconclusive: 10.7%
